Test results reported in PubChem BioAssay AID624296 (National Center for Advancing Translational Sciences (NCATS), 2012).
Screen size: about 350,000 compounds; about 9,900 (2.8%) were called active. Inconclusive means that the source gave no clear call. Such entries were picked first, then a sample of the others. Calls come from the whole dose curve; as a rule, active = well fitted activation curve with a large enough effect; inconclusive = small, poorly fitted or top-dose-only effect; inactive = no such curve, though single readings can be large or run the other way. No potency is given beside an inconclusive call; the fits are too rough.

experiment: A quantitative high throughput screen for small molecules that induce DNA re-replication in MCF 10a normal breast cells.; note: nearly all actives have a fitted effect of over 50% in size; details: MCF 10A DNA re-replication, Hoechst nuclear intensity, 48 h; series mostly up to 46.1 µM
Potency is the fitted concentration of half-maximal effect; tags give direction and shape of the fitted curve.

Row | Structure (SMILES) | Potency
1 | O=C(/C(=C/O)N=Nc1ccc(Cl)cc1)c1ccncc1 | inconclusive [activator, partial curve, poor fit]
2 | Cc1ccc(-n2cc3ccc([N+](=O)[O-])cc3n2)cc1 | inconclusive [activator, partial curve, poor fit]
3 | O=C(Nc1ccc(Cl)cc1)NN1CC(=O)N(c2cccc(C(F)(F)F)c2)CC1=O | inactive
4 | O=C(N/N=C/c1ccc(Cl)cc1Cl)c1n[nH]c2c1CCCC2 | inconclusive [activator, full curve, poor fit]
5 | Cc1c(C(=O)Nc2ccc(S(=O)(=O)N(C)C3CCN(C)CC3)cc2)oc2c(Cl)cccc12 | inconclusive [activator, single point]
6 | O=c1cc(C(F)(F)F)[nH]c2c(C(F)(F)F)cccc12 | inconclusive [activator, partial curve, poor fit]
7 | O=C(c1ccccc1Sc1ccc([N+](=O)[O-])cc1Cl)N1CCOCC1 | inactive
8 | O=C(O)CSc1cn(Cc2ccccc2)c2ccccc12 | inactive
9 | Cc1ccc(S(=O)(=O)Nc2cc3c(C(=O)O)c(C)oc3c3ccccc23)c(C)c1 | inconclusive [activator, single point]
10 | CC1CN(C)C(C)c2c1oc1ccc([N+](=O)[O-])cc21 (stereo unspecified) | inconclusive [activator, single point]
11 | O=S(=O)(NC1CC2CCC1C2)c1ccc(Br)s1 (stereo unspecified) | inconclusive [activator, single point]
12 | COc1cc(C(=O)Oc2cc(N)n(S(=O)(=O)c3ccccc3)n2)cc(OC)c1OC | inconclusive [activator, partial curve, poor fit]
13 | c1ccc(CN2CCC(N3CCC(N4CCCCCC4)CC3)CC2)cc1 | inconclusive [activator, single point]
14 | O=C(Nc1cccc(-c2nc3ccccc3s2)c1)c1cccs1 | inconclusive [activator, single point]
15 | OC(CNC1CCCc2ccccc21)COc1c(Cl)cccc1Cl (stereo unspecified) | inconclusive [activator, partial curve, poor fit]
16 | COc1ccc(/C=C/C(=O)c2ccc(OC)cc2OC)cc1 | active: 23.7 µM
17 | COc1ccccc1S(=O)(=O)Cc1ccc(C(=O)N2CCN(c3cccc(Cl)c3)CC2)o1 | active: 14.6 µM
18 | OCC1(Cc2ccccc2)CCN(Cc2cnc(-c3ccc(Cl)cc3)nc2)CC1 | inconclusive [activator, full curve]
19 | CC(C)N(C(=O)[C@H]1C[C@H](CC(=O)NCCCN(C)C)C(=O)N2CCc3c([nH]c4cc(-c5ccco5)ccc34)[C@]12C)C(C)C | inconclusive [activator, single point]
20 | Cc1ccc2c(c1)sc[n+]2Cc1ccccc1 | inconclusive [activator, single point]
21 | Cc1ccc(OCCCOc2cccc3cccnc23)cc1C | inactive

Row | Structure (SMILES) | Potency
22 | CCn1c(SCC(=O)Nc2sc3c(c2C#N)CCCC3)nnc1-c1ccncc1 | inconclusive [activator, partial curve, poor fit]
23 | CCN(CC)CCNC(=O)c1c(C)oc2cc(Br)c(OC)cc12 | inconclusive [activator, partial curve, poor fit]
24 | CCn1ccc(C(=O)Oc2ccc(C(C)C)cc2)n1 | inconclusive [activator, full curve, poor fit]
25 | COc1ccc(N/N=C/c2c(C(=O)O)ccc3ccccc23)cc1 | inconclusive [activator, full curve]
26 | CCCN1CCC(=O)N([C@H](CSc2ccccc2)c2ccccc2)CC1 | inactive
27 | O=C1C(Cc2ccccc2)S/C(=N/N=C/c2ccco2)N1c1ccccc1 (stereo unspecified) | inconclusive [activator, partial curve, poor fit]
28 | CN(Cc1ccccn1)C(=O)c1ccc2nc(Cc3cccc(Cl)c3)oc2c1 | inconclusive [activator, partial curve, poor fit]
29 | NC(=S)N/N=C/c1ccccc1[N+](=O)[O-] | inactive
30 | O=C(NC1CCCCC1)c1ccc(CS(=O)(=O)c2ccc(Cl)cc2)o1 | inconclusive [activator, single point]
31 | COc1c(F)c(F)c(C(=O)Nc2cccc(Cl)c2N2CCOCC2)c(F)c1F | inconclusive [activator, partial curve, poor fit]
32 | CCOC(=O)c1c(C)nn(Cc2ccccc2)c1N | inactive
33 | CCC(C)Oc1ccccc1C1CC(=O)NC2=C1C(=O)CCC2 (stereo unspecified) | inconclusive [activator, single point]
34 | CCC(C(=O)O)C1OC(C(C)C(O)C(C)C(=O)C(CC)C2OC3(C=CC(O)C4(CCC(C)(C5CCC(O)(CC)C(C)O5)O4)O3)C(C)CC2C)C(C)CC1C (stereo unspecified) | inconclusive [activator, single point]
35 | Cc1ccc(C(=O)O)cc1-c1ccc(/C=C2\SC(=O)N(CC(=O)Nc3ccc4c(c3)OCO4)C2=O)o1 | inconclusive [activator, single point]
36 | C=CCn1c(=O)c2ccccc2n2c(SCC(=O)Nc3sc(C)c(CC)c3C(=O)OCC)nnc12 | inconclusive [activator, full curve, poor fit]
37 | Cc1cc(F)ccc1S(=O)(=O)N1CCCOC1CNC(=O)C(=O)NCc1ccccn1 (stereo unspecified) | inactive
38 | O=C1NC(=S)NC1=Cc1ccc(O)cc1 | inactive
39 | Cc1ccc(C2c3[nH]c4ccccc4c3C[C@H]3C(=O)N(c4ccccc4C(=O)NCCCN4CCOCC4)C(=O)N23)cc1 (stereo partly specified) | inconclusive [activator, single point]
40 | CCOC(=O)N1CCN(Cc2nc3cc(NC(=O)c4cccs4)ccc3n2CC)CC1 | inconclusive [activator, partial curve, poor fit]
41 | CNc1nc(OC)nc(N(C#N)CN2C(=O)c3ccccc3S2(=O)=O)n1 | inconclusive [activator, single point]
